Whole data set: some 33,000 sequences, median “E-score (-0.5 to 0.5)” near -0.01, cut for the highest 2% near 0.26. The list shows a part of the results.
Molecular target: Ste12 (UniProt P13574)
Test: PBM E-score (8-mer binding enrichment) (E-score (-0.5 to 0.5)); higher = stronger / more preferred TF binding; most listed sequences are background and not binding sites
Details: protein concentration: 200 nM; construct: GST-DNA-binding domain
Outline: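 Yeast transcription factors, full-length or as DNA-binding domains, were expressed with a GST tag using PURExpress in vitro transcription/translation. At about 100-200 nM they were applied to universal all-10-mer Agilent arrays, double-stranded by primer extension on fresh or once-stripped slides. Fluorescent anti-GST detected bound protein, and masliner normalised the scans. E-scores for ungapped eight-base words, pooled with reverse complements, came from the Universal PBM Analysis Suite.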

Sequence | PBM E-score
GCTTACAA | -0.0186
AGCCTCGA | 0.0456
AAAGGGAT | 0.00067
AGAAAGCC | -0.13
CTCTCCTC | -0.168
ACCCGCGG | 0.176
CGTTCTAC | -0.113
GACTTGAA | 0.0172
CCCTGAAG | -0.161
AGAAACCC | 0.0469
TAATGTAA | 0.194
AGCAGCCA | -0.168
GCCAGCCA | -0.0507
ATGTACCA | 0.0535
CAACTACA | 0.128
CCCTGGGA | -0.226
GACATGGA | 0.0214
CCTGGAGA | -0.108
GATGTGAC | 0.231
GATCGATC | 0.0593
CACTCGAG | -0.129
CCTCCTCC | 0.0915

Sequence | PBM E-score
CGGTGGAC | -0.157
GCAAGTCC | -0.228
CCGCTACA | 0.138
ATTACCAA | 0.0123
AACATGCC | -0.0549
AAGGGCCG | -0.262
GGTACCCA | -0.305
CTTAGTGA | -0.00728
AGACCATA | 0.211
CGAGCCGA | -0.0584
ATGACTCC | -0.203
CTCGGGCA | -0.0957
CCAAGAAA | 0.0914
TGCACGCA | -0.0625
AATACTAA | 0.196
AGGGCATC | -0.286
CATGCGTA | 0.144
ATCAAAAT | 0.192
GGTAGGAA | -0.172
AACGTTCA | 0.116
TAACCGAA | 0.12
CGCTTAAG | -0.131

Sequence | PBM E-score
ATCTGATC | -0.0595
GGTGAATA | -0.0106
AAACAGAC | 0.228
ACGGACTA | -0.0824
CCGTCGCC | 0.0242
AGCTCAGG | 0.00027
AGTTTTGG | 0.104
CCTTGTAC | -0.00301
CCCCATAC | 0.0796
CGCTGATC | 0.168
GTGACCTA | -0.117
AAATCCGA | 0.258
CGTGGTAG | -0.0769
CCAAGGTC | -0.169
GCGGTCTA | -0.0554
AGCAATTG | -0.159
ACGCAGCT | -0.196
ATATACTC | 0.118
CACTATAA | 0.177
AAGCCGGC | 0.0834
AGCGTATA | 0.0962
GGAACCAC | -0.299

Sequence | PBM E-score
CATCCAGG | -0.126
AAAAGCAC | -0.169
ACACGTTA | -0.0848
AAAAATTC | 0.224
ACCATAGC | -0.134
CTTGTTGC | 0.00409
ATTAGCCG | 0.0107
TAACAACA | 0.116
CACGTGCG | -0.023
CACCTCCA | -0.0182
CGAGTCCC | -0.00746
ACATTGTC | 0.169
AAACCCAC | 0.211
ACCTAGCG | -0.241
ATAGCTGG | 0.069
AGGGGCGG | 0.452
CAATAGGG | 0.0628
ATTGACAA | -0.112
TATACCGA | 0.0793
CCAGCAAA | 0.105

Source: the supplement of paper PMC3334620
